# Results taken from a collection of fitness landscapes (doi:10.1016/j.celrep.2020.107928).
# Whole data set: some 81,000 sequences, median “one-hybrid fitness for binding NBS DNA” near -0.1, cut for the highest 2% near 0.36. The list shows a part of the results.
# B1: Caulobacter ParB omega fusion; a variant is named by its letters at X, in order, B8GW30 (parent)
# chain: MESVVVGEPGMSEGRRGLGRGLSALLGEVDAAPAQAPGEQLGGSREAPIEILQRNPDQPRRTFREEDLEDLSNSIREKGVLQPILVRPSPDTAGEYQIVAGERAWRAAQRAGLKTVPIMVRELDDLAVLEIGIIENVQRADLNVLEEALSYKVLMEKFERTQENIAQTIGKSXSHVANXMRLLXLPDEVQSYLVSGELTAXHARAIAAAADPVALAKQIIEGGLSVRETEALARKAPNLSAGKSKGGRPPRVKDTDTQALESDLSSVLGLDVSIDHRGSTGTLTITYATLEQLDDLCNRLTRGI
# Variants of: B1
# Experiment: one-hybrid fitness for binding NBS DNA (the Noc-binding site; scaled: cognate 1, non-cognate 0); higher = stronger binding
# Details: with NBS DNA site
# In short: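 Values were rescaled so that cognate is 1 and non-cognate is 0. Each is a fitness, the log change in a variant's read ratio to wild type from Illumina reads of plasmids before and after selection, with three replicate libraries pooled and variants under 10 reads dropped. Selection of the Caulobacter ParB libraries, four specificity codons randomised, used E. coli USO with a HIS3 reporter, site 19 bp from the promoter, on M9-minus-histidine with 0.1 mM IPTG and 5 mM 3-AT for 48 hours at 37°C.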
row,Variant,one-hybrid fitness for binding NBS DNA
1,TKTA,≤ 0.2
2,SVYL,≤ 0.2
3,QILR,0.335
4,RSYY,≤ 0.2
5,CNPF,≤ 0.2
6,QITL,≤ 0.2
7,KNLA,≤ 0.2
8,HHHR,≤ 0.2
9,MPAK,≤ 0.2
10,KTSI,≤ 0.2
11,LDVK,≤ 0.2
12,YDTH,≤ 0.2
13,QFRS,0.312
14,RNPW,≤ 0.2
15,SRRV,≤ 0.2
16,WTKR,0.234
17,GTHM,≤ 0.2
18,EIYR,≤ 0.2
19,SYMC,≤ 0.2
20,VAYG,≤ 0.2
21,FQSS,≤ 0.2
22,QKYM,≤ 0.2
23,SRFG,≤ 0.2
24,RTKK,0.304
25,TRGV,≤ 0.2

row,Variant,one-hybrid fitness for binding NBS DNA
1,AWYR,≤ 0.2
2,SWIT,≤ 0.2
3,MWRT,≤ 0.2
4,RCAR,0.529
5,ALHD,≤ 0.2
6,FFPT,≤ 0.2
7,NMRS,≤ 0.2
8,LPPF,≤ 0.2
9,MFES,≤ 0.2
10,HSHE,≤ 0.2
11,LSPS,≤ 0.2
12,ETVR,≤ 0.2
13,FAYR,≤ 0.2
14,TCTI,≤ 0.2
15,LARM,≤ 0.2
16,RSTQ,≤ 0.2
17,RAMV,≤ 0.2
18,EVMR,≤ 0.2
19,VYCE,≤ 0.2
20,DIRD,≤ 0.2
21,KHNH,≤ 0.2
22,RCWP,≤ 0.2
23,YDKG,≤ 0.2
24,CYRF,≤ 0.2
25,TSSK,≤ 0.2

row,Variant,one-hybrid fitness for binding NBS DNA
1,THTT,≤ 0.2
2,ECNK,≤ 0.2
3,TYSV,≤ 0.2
4,MTSN,≤ 0.2
5,TKNT,≤ 0.2
6,WLRL,≤ 0.2
7,DVTR,≤ 0.2
8,NYGY,≤ 0.2
9,NAPW,≤ 0.2
10,VTSN,≤ 0.2
11,LAAG,≤ 0.2
12,DSAR,≤ 0.2
13,FAFS,≤ 0.2
14,HDNF,≤ 0.2
15,PHLK,≤ 0.2
16,RRIW,≤ 0.2
17,MNRI,≤ 0.2
18,QEVT,≤ 0.2
19,RYES,≤ 0.2
20,PRTE,≤ 0.2
21,NQFD,≤ 0.2
22,SSVG,≤ 0.2
23,EAVD,≤ 0.2
24,RILP,≤ 0.2
25,EKPL,≤ 0.2

row,Variant,one-hybrid fitness for binding NBS DNA
1,KTQW,≤ 0.2
2,GTPR,≤ 0.2
3,LHWT,≤ 0.2
4,CCNS,≤ 0.2
5,KAEC,≤ 0.2
6,AIGW,≤ 0.2
7,PYQV,≤ 0.2
8,LKKD,≤ 0.2
9,AACC,≤ 0.2
10,QWTS,≤ 0.2
11,TWEC,≤ 0.2
12,LGTD,≤ 0.2
13,EAQR,≤ 0.2
14,SLAI,≤ 0.2
15,DAIK,≤ 0.2
16,IQHG,≤ 0.2
17,QQMN,≤ 0.2
18,SVYF,≤ 0.2
19,HYVR,≤ 0.2
20,TTYD,≤ 0.2
21,PPVE,≤ 0.2
22,VAWH,≤ 0.2
23,VVSD,≤ 0.2
24,NVKT,≤ 0.2
25,NLNY,≤ 0.2

row,Variant,one-hybrid fitness for binding NBS DNA
1,QADE,≤ 0.2
2,HCQS,≤ 0.2
3,FTYS,≤ 0.2
4,YTSS,≤ 0.2
5,YTFC,≤ 0.2
6,EPCR,≤ 0.2
7,SKAC,≤ 0.2
8,QMEK,≤ 0.2
9,QRNS,0.716
10,TTPV,≤ 0.2
11,ATPW,≤ 0.2
12,MALA,≤ 0.2
13,QWNN,≤ 0.2
14,KTVT,≤ 0.2
15,YHAM,≤ 0.2
16,VQYW,≤ 0.2
17,MCHR,≤ 0.2
18,PPPF,≤ 0.2
19,GAET,≤ 0.2
20,NAAA,≤ 0.2
21,WKLV,≤ 0.2
22,VLIL,≤ 0.2
23,RPDQ,≤ 0.2
24,HHFI,≤ 0.2
25,PPYK,≤ 0.2

row,Variant,one-hybrid fitness for binding NBS DNA
1,HHPC,≤ 0.2
2,RQYV,≤ 0.2
3,YAPC,≤ 0.2
4,QQVW,≤ 0.2
5,RWSQ,≤ 0.2
6,HRHF,≤ 0.2
7,GELG,≤ 0.2
8,KQAR,≤ 0.2
9,PFYC,≤ 0.2
10,QHRF,0.284
11,LSGG,≤ 0.2
12,DVDR,≤ 0.2
13,CDES,≤ 0.2
14,PGSM,≤ 0.2
15,QVTR,0.38
16,YHTG,≤ 0.2
17,RHVI,≤ 0.2
18,QRQP,0.222
19,TNFH,≤ 0.2
20,CAWW,≤ 0.2
21,GGAR,≤ 0.2
22,QKTT,0.56
23,GCRQ,≤ 0.2
24,KHLV,≤ 0.2
25,ILRK,≤ 0.2

row,Variant,one-hybrid fitness for binding NBS DNA
1,KLSL,≤ 0.2
2,DDKV,≤ 0.2
3,QHVF,≤ 0.2
4,DYAQ,≤ 0.2
5,DNLD,≤ 0.2
6,VQAA,≤ 0.2
7,LVAH,≤ 0.2
8,KMEW,≤ 0.2
9,EVKS,≤ 0.2
10,GVTN,≤ 0.2
11,SPVQ,≤ 0.2
12,EARS,≤ 0.2
13,ELFT,≤ 0.2
14,YRKE,≤ 0.2
15,EGMI,≤ 0.2
16,RCAN,≤ 0.2
17,FVSG,≤ 0.2
18,THVG,≤ 0.2
19,LSER,≤ 0.2
20,NPRN,≤ 0.2
21,QNMG,≤ 0.2
22,KDLK,≤ 0.2
23,HMKW,≤ 0.2
24,EQDG,≤ 0.2
25,TGHR,≤ 0.2

row,Variant,one-hybrid fitness for binding NBS DNA
1,FRKG,≤ 0.2
2,EFHA,≤ 0.2
3,SVTY,≤ 0.2
4,VIFV,≤ 0.2
5,IKKF,≤ 0.2
6,DKEY,≤ 0.2
7,MNGT,≤ 0.2
8,TFWG,≤ 0.2
9,KCWY,≤ 0.2
10,VHYK,≤ 0.2
11,NGHT,≤ 0.2
12,NPFR,≤ 0.2
13,ILPD,≤ 0.2
14,KRQW,≤ 0.2
15,IDMG,≤ 0.2
16,AYRR,≤ 0.2
17,WPDG,≤ 0.2
18,MPCS,≤ 0.2
19,SFYL,≤ 0.2
20,WMAV,≤ 0.2
